Results: patent US9464071B2 (priority 2010, dated 2016)
“And” between values parts separate entries of the source, which are not always exact repeats. Equal entries are not always repeated. Structures can show the parent of a compound that is named as a salt.

| SMILES | melting point |
| --- | --- |
| COc1cc(OC)cc(N(CCCN)c2ccc3ncc(-c4cnn(CCS(C)(=O)=O)c4)nc3c2)c1 | 172.65 °C |
| COc1cc(OC)cc(N(CCN(CCCN)C(C)C)c2ccc3ncc(-c4cnn(C)c4)nc3c2)c1 (as salt: HCl) | 210 °C |
| COc1cc(OC)cc(N(CCC#N)c2ccc3ncc(-c4cnn(CCO)c4)nc3c2)c1 | 163.47 °C |
| CNC(=O)CN(c1cc(OC)cc(OC)c1)c1ccc2ncc(-c3cnn(C)c3)nc2c1 | 252 to 254 °C and 253 °C |
| COc1cc(OC)cc(N(CCNC(C)C)c2ccc3ncc(-c4cnn(CCCN)c4)nc3c2)c1 | 170 °C |
| COc1cc(OC)cc(N(CCn2cccn2)c2ccc3ncc(-c4cnn(C)c4)nc3c2)c1 | 168 °C |
| COc1cc(OC)cc(N(CCCO)c2ccc3ncc(-c4cn[nH]c4)nc3c2)c1 | 202 °C and 202.6 °C |
| COc1cc(OCC2CC2)cc(N(CC2CC2)c2ccc3ncc(-c4cnn(C)c4)nc3c2)c1 | 176.3 °C |
| COc1cc(OC)cc(N(CCS(C)(=O)=O)c2ccc3ncc(-c4cnn(C)c4)nc3c2)c1 | 209 °C |
| COc1cc(OC)cc(N(CCC(=O)NCC(F)(F)F)c2ccc3ncc(-c4cnn(C)c4)nc3c2)c1 | 196 °C |
| COc1cc(OC)cc(N(CC(NC(C)C)C(C)C)c2ccc3ncc(-c4cnn(C)c4)nc3c2)c1 (stereo not drawn) (as salt: HCl) | 186 °C |

Other lines, results leading:

| melting point | SMILES |
| --- | --- |
| 167.79 °C | COc1cc(OC)cc(N(CCCN2CCCC2)c2ccc3ncc(-c4cnn(C)c4)nc3c2)c1 |
| 190 °C | COc1cc(OC)cc(N(CCO)c2ccc3ncc(-c4c(C)nn(C)c4C)nc3c2)c1 |
| 130 °C | COCCc1cc(OC)cc(N(CC2CC2)c2ccc3ncc(-c4cnn(C)c4)nc3c2)c1 |
| 163 °C | COc1cc(OC)cc(N(CC2CCNCC2)c2ccc3ncc(-c4cnn(C)c4)nc3c2)c1 (as salt: HCl) |
| 126.8 °C | COc1cc(OC)cc(N(C[C@@H](O)CNCC(F)(F)F)c2ccc3ncc(-c4cnn(C)c4)nc3c2)c1 |
| 147.5 °C and 147.56 °C | COc1cc(OC)cc(N(CC2CC2)c2ccc3ncc(-c4cnn(CCO)c4)nc3c2)c1 |
| 142 °C and 141.79 °C | COc1cc(OC)cc(N(CCNC(=O)C2CCCN(C)C2)c2ccc3ncc(-c4cnn(C)c4)nc3c2)c1 (stereo not drawn) |
| 194 °C and 189 °C | COc1cc(OC)cc(N(CC#CC2CCNCC2)c2ccc3ncc(-c4cnn(C)c4)nc3c2)c1 (as salt: HCl) |
| 162 °C and 161.91 °C | COc1cc(Cl)cc(N(CCCN2CCCC2)c2ccc3ncc(-c4cnn(C)c4)nc3c2)c1 (as salt: HCl) |
| 220 °C | C#CCN(c1ccc2ncc(-c3cnn(C)c3)nc2c1)c1c(Cl)c(OC)cc(OC)c1Cl |
| 94.44 °C | COc1cc(OC)cc(N(C[C@@H](O)CNC(C)C)c2ccc3ncc(-c4cnn(C)c4)nc3c2)c1 (as salt: HCl) |
| 142 °C and 142.35 °C | COc1cc(OC)cc(N(CCCO)c2ccc3ncc(-c4cnn(CCO)c4)nc3c2)c1 |
| 168 °C | COc1cc(OC)cc(N(CCCO)c2ccc3ncc(-c4cnn(C)c4)nc3c2)c1 |
